Laboratory results as given in a collection of fitness landscapes (doi:10.1016/j.celrep.2020.107928).
Whole data set: some 81,000 sequences, median “one-hybrid fitness for binding parS DNA” near -0.17, cut for the highest 2% near 0.51. Some of the results follow.

B1: Caulobacter ParB omega fusion; a variant is named by its letters at X, in order, B8GW30 (parent)
chain: MESVVVGEPGMSEGRRGLGRGLSALLGEVDAAPAQAPGEQLGGSREAPIEILQRNPDQPRRTFREEDLEDLSNSIREKGVLQPILVRPSPDTAGEYQIVAGERAWRAAQRAGLKTVPIMVRELDDLAVLEIGIIENVQRADLNVLEEALSYKVLMEKFERTQENIAQTIGKSXSHVANXMRLLXLPDEVQSYLVSGELTAXHARAIAAAADPVALAKQIIEGGLSVRETEALARKAPNLSAGKSKGGRPPRVKDTDTQALESDLSSVLGLDVSIDHRGSTGTLTITYATLEQLDDLCNRLTRGI

Variants of: B1
Assay: one-hybrid fitness for binding parS DNA (scaled: cognate 1, non-cognate 0); higher = stronger binding
Conditions: with parS DNA site
Summary of the method: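 On M9-minus-histidine containing 0.1 mM IPTG and 5 mM 3-AT, E. coli USO cells with a HIS3 reporter, site 19 bp from the promoter, grew 48 hours at 37°C to select Caulobacter ParB libraries randomised at four specificity codons. Plasmids from before and after were Illumina-sequenced, with three replicate libraries pooled and variants under 10 reads left out. Fitness is the log change in variant-to-wild-type read ratio, rescaled against cognate and non-cognate.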

one-hybrid fitness for binding parS DNA, 0.912:
RYQS

one-hybrid fitness for binding parS DNA, 0.97:
RLGC

one-hybrid fitness for binding parS DNA, 0.336:
RCWW

one-hybrid fitness for binding parS DNA, 0.317:
DHHQ

one-hybrid fitness for binding parS DNA, ≤ 0.2:
CPST
YKDA
PKEG
TAPK
HRPL
YEPV
PSSA
EGYG
HSDS
ELWA
YLEC
LGWT
PFTF
PRMM
QPSR
ILCI
HLDL
FQAE
MNTC
NWQR
GTFG
VQPF
DRLV
SLTS
HYVK
SGIY
CFSC
RYDI
RCIR
TNAC
PYRV
FMPC
HQWS
PVLY
VRLY
LHTT
QCHI
SSHE
PYTC
PDFT
KCQG
GPMK
EDNG
EPQE
SMQL
HYPL
AFKK
YWTG
IAQR
SHEN
MRLD
ITNM
SDCL
HMYG
PMSQ
QAHF
LTVY
PSQT
AQAS
APCS
GAPI
IPDL
LTSP
KPTC
HSGR
TPNM
LPFP
HGHS
RDEA
RVDW
SARE
LQEY
HFQT
KYHS
VANF
RHPI
SLKS
DAST
IRRF
HPMF
FKPF
EVTP
GGRT
TLKP
SMYR
RKGQ
NILR
KYMS
PFPS
LLRL
IRSH
GQTI
VNSW
DCRF
ITPV
NTPV
NEHN
TQDC
FIRG
ILWT
ILKV
ISYM
KRFF
KMRG
SLWP
IFQT
AKNN
NIKT
LTRI
ACYV
RLFR
LSSC
FINK
WPAY
TIQT
CHHR
YPWF
PLMI
RCPH
TVTL
MTTM
QAWN
VGHD
VMAS
HIRP
GSVF
YRTP
LICC
NVTY
WPGT
QTRD
TVCT
IHHC
HPAD
QSKG
CPIE
ETVC
MGPS
WRGR
EVKV
GSKY
KAAL
EGVM
DCLR
RQGD
GTDT
QVYY
LNQE
TEAL
YTDF
LQFR
DYQT
ALPY
HIHI
MHLV
DHDV
TDSD
NDGL
KWST
PNSE
RYGD
LSKP
PMWK
NCTY
LKSN
STHL
CLET
ALKL
DKTW
QKSL
CHKR
YEAH
HERA
FQNR
DMSY
WLLW
AFCS
ALNN
QING
WHNS
FTYT
WMKE
VGHL
LNFS
VNMG
PELN
AIMS
ESSV
FMTV
RHNH
IRHH
HEDG
CAGD
IWPL
LNLY
YCYC
GQFT
PSQI
KIRG
IWHR
TRHG
MQPT
LVPY
GYSR
ISND
NMKM
CRQV
PHVM
PYAA
HWCR
NVHH
PMLN
YTTD
SELV
SLGT
SSFA
NPYE
FYKS
SIYL
CIIR
ATLP
WPRW
VIKL
HYYS
SLCE
RDAD
FDHC
FNPA
PLLC
QAYM
NICA
TLRG
CFGT
LWQS
AHNT
RYWH
TNKE
MAAT
ADVT
AGTT
PLDY
LACC
DCHT
QCRP
AAQL
TMRM
YQFV
AYWW
QVES
DPIL
RKIW
CIVS
PKQT
WLTT
LPYS
FYCC
DLKT
HFNC
CKCR
VGVS
PCNM
KVLS
AVRW
MMPI
DALH
SNNY
REFL
ITRG
VDNT
TFGR
GEFS
QFME
PTID
IVWT
ISRL
VWRG
WAQC
TQVW
FTGT
HRLY
QGTF
KLES
QKSK
WCLC
GRDC
ANST
GFGC
GHTF
CAKM
TCNH
TDLT
QQKF
SEIT
KIGG
RVEK
IIHV

one-hybrid fitness for binding parS DNA, 0.256:
RYFF

one-hybrid fitness for binding parS DNA, 1.01:
RFYS

one-hybrid fitness for binding parS DNA, 0.324:
RVNM

one-hybrid fitness for binding parS DNA, 0.255:
MCMV

one-hybrid fitness for binding parS DNA, 0.312:
NTWH

one-hybrid fitness for binding parS DNA, 0.289:
RCAF
